# Results: the supplement of paper PMC3334620
# Whole data set: some 33,000 sequences, median “E-score (-0.5 to 0.5)” near -0.036, cut for the highest 2% near 0.37. This is one part of the list.
# Molecular target: T1, Yer064c (UniProt P40041)
# T1 sequence: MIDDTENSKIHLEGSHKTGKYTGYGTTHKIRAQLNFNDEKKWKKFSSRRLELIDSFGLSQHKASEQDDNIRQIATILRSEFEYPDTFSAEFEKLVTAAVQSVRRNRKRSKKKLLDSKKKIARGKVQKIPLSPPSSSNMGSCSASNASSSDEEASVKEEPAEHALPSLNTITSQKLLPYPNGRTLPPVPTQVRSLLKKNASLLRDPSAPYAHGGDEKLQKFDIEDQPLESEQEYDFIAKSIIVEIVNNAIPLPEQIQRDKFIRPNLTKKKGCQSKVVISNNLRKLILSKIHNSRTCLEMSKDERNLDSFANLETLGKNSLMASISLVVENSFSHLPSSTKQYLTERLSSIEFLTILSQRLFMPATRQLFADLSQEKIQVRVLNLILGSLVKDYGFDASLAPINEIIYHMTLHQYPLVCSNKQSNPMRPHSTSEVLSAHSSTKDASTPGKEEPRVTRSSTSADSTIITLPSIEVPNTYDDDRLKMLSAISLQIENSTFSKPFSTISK
# Test: PBM E-score (8-mer binding enrichment) (E-score (-0.5 to 0.5)); higher = stronger / more preferred TF binding; most listed sequences are background and not binding sites
# Conditions: protein concentration: 200 nM; construct: GST-full length
# Summary of the method: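 The E-score, a modified Wilcoxon-Mann-Whitney statistic, was computed by the Universal PBM Analysis Suite for every ungapped eight-base word pooled with its reverse complement. Scans behind it were normalised with masliner after bound GST-tagged yeast transcription factors were detected with fluorescent anti-GST. The proteins, at about 100-200 nM, had been applied to universal all-10-mer Agilent arrays made double-stranded by primer extension.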
row,Sequence,PBM E-score
1,ACTCGCGC,0.184
2,ATCTCTTC,-0.114
3,GAGAGTTA,0.0441
4,CGAAAATA,-0.0465
5,AGATCAGC,0.0642
6,CCATTACC,-0.108
7,AATTTATG,-0.00855
8,GATTTTGA,0.244
9,CACGGCCG,-0.012
10,CATACGCA,-0.0763
11,AGGACGAC,0.139
12,GTTGATGA,0.278
13,ACTCATGA,0.402
14,CATTCTCA,0.0264
15,TATATAAA,0.163
16,ACCTCACC,0.0366
17,CCAATGGG,-0.239
18,TATAATAA,0.115
19,AGACCTTA,0.174
20,TTTCCAAA,-0.0334
21,AGATTACG,0.0718
22,ATCTATCG,-0.162
23,AAGCCCCA,-0.246
24,ATTTTCTG,0.126
25,ACGGAGCT,-0.289

row,Sequence,PBM E-score
1,AGCAAGTC,0.101
2,ATAACTGC,0.0557
3,AACAGTAG,-0.0763
4,CGCCCCTA,-0.188
5,GTAACACA,0.0697
6,CGGACTGA,0.178
7,CGTACTGA,0.137
8,CAAGAGAA,-0.0423
9,ACGACGTC,-0.116
10,GGACTAAA,0.331
11,CGATCGGC,-0.258
12,AATCAGAG,0.269
13,AAAGTCGC,0.173
14,ATGGGCAG,-0.2
15,CCAAACGA,-0.01
16,CCCGAAGA,-0.278
17,GCGAGAAC,-0.0574
18,TACGGCCA,-0.26
19,AGTCGACC,0.169
20,GCATCCGA,-0.165
21,GCCCCGCA,-0.336
22,CGGCTTTA,-0.0824
23,ACAGCACA,-0.0561
24,ACCTGTCT,-0.00482
25,AACTAACG,-0.00567

row,Sequence,PBM E-score
1,ATCTGTAA,0.0356
2,ACTTAGCT,-0.0337
3,CAATTGAG,0.15
4,CTGCTTGC,-0.21
5,GCCTAGGA,-0.205
6,ACACCCCG,-0.135
7,GCTAAGTA,0.0764
8,CCTTTGCA,-0.134
9,AGCGGCCT,-0.232
10,AGCTGACA,0.00999
11,CCGTATTC,-0.0188
12,ACGCTCGA,-0.244
13,GCTGCGCA,-0.0154
14,AGTTGTAG,-0.00589
15,ACAAGGGA,-0.248
16,AGTAAGAG,0.042
17,TAAACTGA,0.141
18,AACATAGG,-0.104
19,CACACCGC,0.0449
20,GCGTCACA,-0.13
21,CCTCCAAA,-0.116
22,ACGTCGGC,0.0442
23,ACCGCACA,-0.211
24,AAAGGCTA,-0.0748
25,ACCTATTC,-0.161

row,Sequence,PBM E-score
1,GTCATTGA,0.261
2,AAATCGGA,0.118
3,GATTCTAA,0.28
4,AAGTCCGG,-0.0349
5,AATTAAAT,0.135
6,CCATTTCC,0.105
7,CAGCCGAG,0.0098
8,GCGTTTTA,-0.151
9,CACGATAC,-0.0728
10,AATAATAA,0.124
11,GTCCAAGA,-0.112
12,TCACGCCA,0.193
13,AGACTCCA,0.323
14,AAGTACCA,0.00037
15,TAGTTGAA,0.127
16,TATAGGCA,-0.158
17,ATAACAGC,-0.129
18,CCACGTTC,-0.218
19,AAGCTGGT,-0.0556
20,TGAAGCCA,0.114
21,CTCTCAAA,0.18
22,GGTAAGGA,-0.0554
23,ATTGCTTG,0.102
24,CGTCCACC,-0.236
25,AAAACAAT,0.0653

row,Sequence,PBM E-score
1,CATTGGGC,-0.112
2,GACTTCAC,0.31
3,ATCCTTCA,0.115
4,GCGAGCGC,-0.169
5,GCACTCAC,0.0283
6,GGCTTAAA,0.0239
7,AAAATCGT,-0.0697
8,CAGAGCGC,-0.0936
9,AGATCCAT,-0.0304
10,GTGCCAAC,-0.158
11,ATGGGAGA,-0.0704
12,CTGTTTCA,0.0201
13,TAAACTTA,0.201
14,AGGCGCGG,-0.293
15,GGAGAACC,-0.271
16,ATCCCTGA,0.0465
17,AGGGTCCC,-0.371
18,CCGAAAAG,-0.0303
19,GCGAAGCC,-0.0544
20,CTGTCTCA,0.238
21,CCGGCTCC,-0.373
22,AGGGCCAC,-0.169
23,AGTGCGGA,0.0375
24,CAATATCC,-0.178
25,GTTCGACA,0.02

row,Sequence,PBM E-score
1,ACGTAATG,-0.0682
2,AGCTTTGG,-0.0788
3,AAACAGAT,0.0558
4,ATCCGTCC,-0.115
5,CGGGTACC,-0.097
6,GAAACTTC,-0.11
7,ATTTCCAC,0.0283
8,ATTAAAGG,0.0794
9,AGCTCTTG,-0.0716
10,ACGAACCG,-0.147
11,CCCTTACC,-0.241
12,ACGGCGGC,-0.217
13,AGTGCTGA,0.0779
14,ATATATGA,0.226
15,AACAACGC,-0.208
16,CGGTCCAG,-0.129
17,AATATTAA,0.0521
18,AGCCTAAT,-0.0714
19,GACGTACC,-0.142
20,CTTTCGTA,-0.053
21,ACGCTAGG,-0.0312
22,GCCAGGCA,-0.226
23,GTATGATA,0.0434
24,CACCCTTA,0.00989
25,ACGTCAAA,0.0154

row,Sequence,PBM E-score
1,AAGCTTGG,-0.0782
2,ACGCCATG,-0.0708
3,AACCACCT,0.0325
4,CGCTGGTA,-0.0555
5,AGGAGGAA,-0.137
6,AACGATCG,0.0139
7,ATACTGGG,-0.108
8,AACTAGTC,0.355
9,ACCCAAGT,-0.00665
10,AGCGTGAC,0.209
11,CAGGAACC,-0.168
12,CTCTTCCC,-0.152
13,CACGTCAA,0.155
14,AATTGGTC,-0.0619
15,AGATCTAT,0.0269
16,ATATCCAT,-0.136
17,AGGGGTCC,-0.223
18,ACCGTTTG,-0.0394
19,TGAGCGCA,-0.173
20,CGCCCAGA,-0.205
21,AGGGCCCC,-0.0403
22,CCTGGCGA,-0.211
